# Measurements: PubChem BioAssay AID686978 (National Center for Advancing Translational Sciences (NCATS), 2013)
# Screen size: about 420,000 compounds; about 64,000 (15%) were called active. Inconclusive results, whose numbers are uncertain, are shown with a selection of clear calls. Calls follow the shape of the dose curve; as a rule, active = well fitted inhibition curve with a large enough effect; inconclusive = small, poorly fitted or top-dose-only effect; inactive = flat fitted curve, though single readings scatter. No potency is given beside an inconclusive call; the fits are too rough.
# Assay: qHTS for Inhibitors of human tyrosyl-DNA phosphodiesterase 1 (TDP1): qHTS in cells in absence of CPT; also: nearly all actives have a fitted effect of over 55% in size
# Details: DT40 Tdp1-/- hTDP1 cells, no CPT, ATP luminescence, 48 h; activity change, negative = growth inhibition: at 46.2 µM (top of the series)
# From the text: Human tyrosyl-DNA phosphodiesterase 1 (TDP1) is a novel repair gene, and we propose to use it as a new target for anticancer drug development. TDP1 is not an essential protein, but under treatment with topoisomerase I poison (camptothecin: CPT), TDP1 works as a critical factor for cell survival. To directly identify novel TDP1 inhibitors active in a cellular environment, we have knocked-out the Tdp1 gene in chicken DT40 cells (Tdp1-/-) and generated a complemented counterpart cells that contains a stable transfection of the human TDP1 gene (Tdp1-/-;hTDP1 cells). For the primary screen, Tdp1-/-;hTDP1 cells will be exposed to small molecules in the presence or absence of CPT, and their growth kinetics will be evaluated after 48 hours by measuring ATP activity. […] The hit compounds will then be evaluated in the presence or absence of CPT using Tdp1-/- cells. […] In tertiary assays, biochemical gel-based assays will be used to assess whether the hit compounds specifically target TDP1.
# To this end, we have screened this cell line against the MLSMR in two primary screens. In one screen we add CPT and in the other we screen in the absence of CPT; this AID represents the screen where CPT was absent.
# NIH Chemical Genomics Center [NCGC]
# NIH Molecular Libraries Probe Centers Network [MLPCN]
# Assay Submitter (PI): Yves Pommier, NCI
# DT40-hTDP1 cells without 20 nM Camptothecin (add 20 microL of DMSO in 1 L of cell culture medium) were dispensed at 400 cells/5microL/well in tissue culture treated 1536-well white wall/solid bottom assay plates (Greiner Bio-One North America, NC, U.S.A.) using a Multidrop Combi 8 channel dispenser (Thermo Fisher, Waltham, MA, USA). 23 nL compounds and controls were transferred using the pin tool (Kalypsys, San Diego, CA, USA) to the assay plates. The assay plates were then incubated at 37 masculineC for a minimum 48 hr. Three microL of Cell Titer Glo solution was added to the plates and incubated at RT in dark for 30 min. Luminescence was read using ViewLux (Perkin Elmer) with 1 sec exposure slow speed, high gain and 2x binning.
# % is scaled to controls: 0 for no effect and ±100 for the full control effect; potency is read from the fitted curve at half-maximal effect; tags tell the direction and shape of the fitted curve.
Structure (SMILES),Potency,"activity change, negative = growth inhibition"
C[C@@H]1CCCCO[C@H](CN(C)C(=O)NC2CCCCC2)[C@@H](C)CN([C@H](C)CO)C(=O)c2cc(NC(=O)c3ccccc3)ccc2O1,active: 20.6 µM,
CCCNC(=O)C1(C)CCCN(C(=O)C(c2ccccc2)c2ccccc2)C1 (stereo not given),"inconclusive [inhibitor, single point]",
COC(=O)c1cc(S(=O)(=O)N2CCN(c3ccc(F)cc3)CC2)c[nH]1,inactive,
CCN1CCN(CCCNC(=O)c2ccc3c(c2)NC(=O)/C(=C\c2cccc(C)c2)S3)CC1,"inconclusive [inhibitor, single point]",
COc1ccc(-c2cc(C(=O)NCCCn3ccnc3)no2)cc1,inactive,
CCc1ccc(-c2nc3cc(NC(=O)c4cc5ccccc5cc4OC)ccc3o2)cc1,active: 13 µM,
Cc1ccc(S(=O)(=O)CCC(=O)OCn2nnc3ccccc3c2=O)cc1,,inconclusive: -31.3% [inhibitor]
COc1cc2c(cc1OC)C(COc1ccc(F)cc1)N(C(=O)c1ccc(S(=O)(=O)N3CCCC3)cc1)CC2 (stereo not given),"inconclusive [inhibitor, single point]",
COc1cc(CNC2CCCC2)cc(Cl)c1OCc1ccccc1F,active: 13 µM,
CN(C)c1ncc2ncc(=O)n(C[C@H]3CCCO3)c2n1,"inconclusive [inhibitor, single point]",
CN1C(=O)N(CC(=O)N2CCN(S(=O)(=O)/C=C/c3ccccc3)CC2)C(=O)C12CCCCC2,"inconclusive [inhibitor, single point]",
O=C(/C=C/c1ccc([N+](=O)[O-])cc1)N1CCN(Cc2ccccc2)CC1,"inconclusive [inhibitor, single point]",
O=C1NC[C@H](Cc2ccccc2)N(CC2CCN(CCCCc3ccccc3)CC2)C1=O,inactive,
CCOC(=O)c1nc(Nc2cc(Cl)ccc2OC)c2ccccc2n1,"inconclusive [inhibitor, single point]",
CCCCOc1ccccc1NC(=O)CC1Nc2ccccc2NC1=O (stereo not given),"inconclusive [inhibitor, single point]",
Cc1cc(N2CCN(C)CC2)nc2ccc(NC(=S)N3CCC4(CC3)OCCO4)cc12,inactive,
COc1cc(C(=O)COC(=O)c2cnc(C)cn2)ccc1OC(F)F,inactive,
CCN(CC)c1ccc(C=C2SC(=S)NC2=O)cc1,"inconclusive [inhibitor, single point]",
O=C(CSc1nc2nccnc2c(=O)n1Cc1cccs1)Nc1ccccc1F,inactive,
O=C(CCCn1c(=O)c2ccccc2n(Cc2ccc(F)cc2Cl)c1=O)NCCc1ccc(Cl)cc1,active: 18.4 µM,
Nc1nnc(SCC(=O)Nc2ccc3nc(SCC(=O)Nc4ccccc4)sc3c2)s1,"inconclusive [inhibitor, partial curve, poor fit]",
O=C(NCc1ccc(Cl)cc1)c1ccc(-c2ccc(F)c(F)c2)c2ccoc12,"inconclusive [inhibitor, single point]",
COC(=O)c1ccccc1NC(=O)c1ccc2nc(Cc3ccccc3)oc2c1,"inconclusive [inhibitor, single point]",
CC(C)CC(=O)NC(=S)Nc1nc(-c2ccccc2)cs1,"inconclusive [inhibitor, single point]",

Structure (SMILES),Potency,"activity change, negative = growth inhibition"
C=C(C)CNc1cc(S(=O)(=O)N2CCOCC2)ccc1Oc1ccccc1,active: 20.6 µM,
COCCNc1nc(NCc2cccc(OC)c2)c2sc(-c3ccccc3)cc2n1,active: 13 µM,
CNc1nc(Oc2ccc3sc(C)nc3c2)c2sccc2n1,active: 20.6 µM,
CC(=O)c1ccc(NC(=O)C(C)n2nc(-c3ccccc3)c3cc(Cl)ccc32)cc1 (stereo not given),active: 16.4 µM,
CCn1ncc(C(=O)Nc2cccc(Cl)c2)c1C,"inconclusive [inhibitor, partial curve]",
Cc1ccc(NC(=O)C2CCCN(C(=O)Nc3ccc(F)cc3)C2)cc1 (stereo not given),"inconclusive [inhibitor, single point]",
O=C(Nc1ccc(S(=O)(=O)Nc2ncccn2)cc1)C1=COCCO1,"inconclusive [inhibitor, partial curve]",
OC(CN(c1ccccc1)c1ccccc1)Cn1cnc2ccccc21 (stereo not given),"inconclusive [inhibitor, single point]",
Cc1cc(C)n(Cc2ccc(C(=O)NCCC3=CCCCC3)o2)n1,"inconclusive [inhibitor, single point]",
CCCCCCCCN=C1NC(=O)CS1,"inconclusive [inhibitor, single point]",
COc1ccc(CNC(=O)c2ccc(-n3ccnc3)c3ccoc23)cc1OC,"inconclusive [inhibitor, single point]",
CCOc1cccc(-c2c(C(=O)N/N=C(\C)c3cccs3)nnn2-c2nonc2N)c1,"inconclusive [inhibitor, single point]",
Cc1ccccc1NC(=O)OCc1ccccc1,inactive,
CN(C)CCCN(Cc1cc2cc3c(cc2[nH]c1=O)OCO3)C(=S)Nc1cccc(Cl)c1,active: 29.1 µM,
Clc1ccc(CSc2nnc(-c3c[nH]c4ccccc34)o2)cc1,"inconclusive [inhibitor, single point]",
CN(C)S(=O)(=O)c1ccc(C(=O)Nc2cc(=O)n(C)c(=O)n2C)cc1,inactive,
O=C(c1ccco1)N1CCN(C(=O)c2cc(-c3ccccc3)nc3ccccc23)CC1,"inconclusive [inhibitor, single point]",
O=C(CN(c1ccccc1)S(=O)(=O)c1ccc(F)cc1)NCc1cccs1,inactive,
C[C@H]1CN([C@@H](C)CO)C(=O)Cc2cc(NC(=O)CCC(F)(F)F)ccc2O[C@H]1CN(C)Cc1ccc(-c2ccccc2)cc1,"inconclusive [inhibitor, single point]",
Cc1noc(C)c1C(=O)N1CCC2(CCCN(c3ccccn3)C2)CC1,"inconclusive [inhibitor, partial curve, poor fit]",
Cc1cccc(NC(=O)c2c(C)cc(C)nc2SCC(=O)Nc2c(C)cc(C)cc2C)c1,,inconclusive: -33.2% [inhibitor]
CC1=CC(C)(C)[N+](C)(C)c2ccccc21,"inconclusive [inhibitor, single point]",
CC(=O)Nc1ccc(NC(=O)c2ccc(COc3ccc(Cl)cc3Cl)o2)cc1,active: 16.4 µM,
Cc1cccc(N2CCN(C(=O)c3cc(COc4ccc(F)c(F)c4)on3)CC2)n1,inactive,

Structure (SMILES),Potency,"activity change, negative = growth inhibition"
O=C(COc1ccc([N+](=O)[O-])cc1)NCC1(N2CCOCC2)CCCCC1,"inconclusive [inhibitor, single point]",
Cc1ccc(N(CC(=O)NCC2CCCO2)C(=O)CCC(=O)Nc2nccs2)cc1 (stereo not given),inactive,
Nc1cc(=O)nc(SCC(=O)Nc2ccc(F)cc2)n1-c1ccccc1Cl,inactive,
O=C(O)C/C(=C\c1ccc(N2CCOCC2)c([N+](=O)[O-])c1)c1nc2ccccc2s1,inactive,
COc1ccc(C)cc1NC(=O)C1CCN(S(=O)(=O)c2ccc3[nH]c4c(c3c2)CCCCC4)CC1,"inconclusive [inhibitor, full curve]",
Cc1ccc(OCCSc2nc3ccccc3n2CC(=O)O)c(C(C)C)c1,inactive,
Cn1cc(C(=O)c2cccc(Cl)c2Cl)cc1C#N,"inconclusive [inhibitor, single point]",
COC(=O)c1cccc(NC(=O)Nc2ccc(Cl)cc2Cl)c1,"inconclusive [inhibitor, partial curve]",
C[C@H]1CNC(=O)C(=O)N1C[C@H](Cc1ccc(O)cc1)NC(=O)CC12CC3CC(CC(C3)C1)C2,inactive,
Cc1ccccc1S(=O)Cc1ccc(C(=O)N2CCN(C(=O)c3ccco3)CC2)o1 (stereo not given),inactive,
COc1ccc(CC(=O)NC2CCN(Cc3nnnn3C(C)(C)C)CC2)cc1OC,inactive,
COCCNc1ncnc2ccc(-c3ccccc3OC)cc12,"inconclusive [inhibitor, single point]",
Cc1cc(C)cc(NC(=O)CCCN2C(=O)COc3ccc(C)cc32)c1,"inconclusive [inhibitor, partial curve]",
COc1ccc(Cl)cc1NC(=O)COc1cccc(-n2cnnn2)c1,,inconclusive: -35.3% [inhibitor]
O=c1oc(-c2cccs2)nc2c1cnn2-c1ccccc1,"inconclusive [inhibitor, single point]",
COc1cc2nc(SCc3c(C)noc3C)n(CCC3=CCCCC3)c(=O)c2cc1OC,"inconclusive [inhibitor, single point]",
CC(=O)N1CCN(C(=O)c2cc(C)nc3ccccc23)CC1,"inconclusive [inhibitor, full curve, poor fit]",
CC(=O)c1cccc(NC(=O)CSc2nc(=O)n(Cc3cccnc3)c3c2CCC3)c1,inactive,
O=C(NCc1ccco1)C1CCCN(S(=O)(=O)c2cccc3nonc23)C1 (stereo not given),"inconclusive [inhibitor, full curve, poor fit]",
Cc1cccc(N(C(=O)Cn2nnc3ccccc32)C(C(=O)NC(C)(C)C)c2ccsc2)c1C (stereo not given),active: 16.4 µM,
Cc1ccc(S(=O)(=O)N2C[C@H]3n4c(=O)ccc(=O)n4C[C@H](OC(=O)NCC4CCCCC4)[C@@]3(O)C2)cc1,active: 3.66 µM,
O=C(c1cc(-c2ccc(Cl)cc2)n(-c2cc(Cl)ccc2Cl)n1)N1CCOCC1,"inconclusive [inhibitor, single point]",
